# The whole screen tested about 410,000 compounds, of which about 310 (0.076%) were called active. The shares of active, inactive and inconclusive entries below differ from those in the screen. The call rests on the fitted dose curve; in most records, active means well fitted curve in the direction sought with a large enough effect; inconclusive means small, poorly fitted or top-dose-only effect; inactive means flat fitted curve, though single readings scatter. Potencies of inconclusive entries are doubtful fits and often do not repeat.
# Target: DNA dC->dU-editing enzyme APOBEC-3G (Homo sapiens) (UniProt Q9HC16)
# Test: qHTS for Inhibitors of Vif-A3G Interactions: qHTS; further: nearly all actives have a fitted effect of over 60% in size
# Settings: HeLa A3G-eYFP + Vif (tagged APOBEC3G with the HIV-1 protein that degrades it), YFP fluorescence, overnight; series mostly up to 46.1 µM
# Summary of the method: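 HeLa cells stably expressing Vif and C-terminally eYFP-tagged A3G, seeded overnight at 37 deg C, then exposed to compound by pintool overnight at 37 deg C. Rise in yellow fluorescence (Ex 488/Em 500-530, Acumen) marks blocked Vif-driven A3G degradation.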
# Potency means the concentration at half of the fitted maximal effect; tags describe the fitted curve by direction and shape.
# UniProt Q9HC16, sequence (Q9HC16 whole entry, looked up): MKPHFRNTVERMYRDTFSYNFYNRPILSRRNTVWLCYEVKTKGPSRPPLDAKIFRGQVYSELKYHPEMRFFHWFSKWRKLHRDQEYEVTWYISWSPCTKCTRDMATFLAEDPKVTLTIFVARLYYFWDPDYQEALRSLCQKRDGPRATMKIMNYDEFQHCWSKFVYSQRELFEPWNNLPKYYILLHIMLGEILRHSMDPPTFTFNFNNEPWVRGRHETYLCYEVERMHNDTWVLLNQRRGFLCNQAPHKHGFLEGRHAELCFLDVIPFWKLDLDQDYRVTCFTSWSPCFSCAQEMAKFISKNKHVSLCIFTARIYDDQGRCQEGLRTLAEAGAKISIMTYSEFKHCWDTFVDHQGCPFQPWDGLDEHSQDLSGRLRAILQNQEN
row,Compound,Potency
1,COc1ccc(C(=S)N2CCN(c3cccc(Cl)c3)CC2)c(OC)c1,"inconclusive: 1.78 µM [inhibitor, full curve, poor fit]"
2,C=C(/C=C/c1ccc(N(C)C)cc1)c1nc2ccccc2s1,active: 11.2 µM
3,CC(=O)NC(c1cccc(F)c1)c1nc(-c2cc3ccccc3o2)cs1 (centres undefined),"inconclusive: 3.16 µM [inhibitor, full curve, poor fit]"
4,CCOC(=O)[C@H](CCc1ccccc1)N[C@@H](C)C(=O)N1Cc2ccccc2C[C@H]1C(=O)O,inactive
5,CCOc1ccc(-c2c(=O)n(O)c3ccccc3[n+]2[O-])cc1,inactive
6,O=C1NC(=O)/C(=C/c2cccc3ccccc23)S1,inactive
7,O=c1[nH]c(=S)c2[nH]cnc2[nH]1,inactive
8,Cc1ccc(S(=O)(=O)Nc2cccc(-c3cn4ccsc4n3)c2)cc1,"inconclusive: 7.08 µM [inhibitor, partial curve, poor fit]"
9,Clc1ccc2[nH]c3c(c2c1)CCc1cn[nH]c1-3,"inconclusive: 20 µM [inhibitor, single point]"
10,CC(C)Cc1ccc(C(C)CC2=CCC(CN(C)C)C2=O)cc1 (centres undefined),"inconclusive: 8.91 µM [inhibitor, partial curve, poor fit]"
11,CCOC(=O)c1[nH]c(C)c(C(=O)N2CCc3ccccc32)c1C,"inconclusive: 0.355 µM [inhibitor, full curve, poor fit]"
12,Cc1cccc(Nc2nc(-c3c(C)nc4ccccn34)cs2)c1,"inconclusive: 8.91 µM [inhibitor, partial curve]"
13,CCNc1ccc(Br)cc(C(=O)/C=C/c2c(Cl)cccc2Cl)c1=O,"inconclusive: 17.8 µM [inhibitor, partial curve, poor fit]"
14,CC(C)(C)c1ccc(C(=O)NC(=S)Nn2cnnc2)cc1,inactive
15,O=C(NC(=S)Nc1ccc(N2CCCCC2)c(Cl)c1)c1ccc2c(c1)OCCO2,inactive
16,CCOC(=O)c1[nH]c2c(c1C)C(=O)CC(c1ccc(F)cc1)C2 (centres undefined),"inconclusive: 0.891 µM [inhibitor, full curve, poor fit]"
17,CCCCCCn1c(=O)[nH]c2nc3cc(N)ccc3nc2c1=O,"inconclusive: 15.8 µM [inhibitor, partial curve, poor fit]"
18,CCOC(=O)C(=Cc1c[nH]c2ccc(S(=O)(=O)N(C)C)cc12)C(=O)OCC,"inconclusive: 25.1 µM [inhibitor, single point]"
19,COc1ccc(C(=O)C[n+]2cn(C(F)F)c3ccccc32)c(F)c1,inactive
20,CCN(Cc1ccccc1)c1ccc(/C=C/c2ccnc3ccccc23)cc1,"inconclusive: 17.8 µM [inhibitor, single point]"
21,CSc1cc(-c2ccccc2)n(Cc2ccccc2Cl)c(=O)c1C#N,"inconclusive: 1.26 µM [inhibitor, full curve, poor fit]"
22,COc1cc(/C=C/C=C2/CC/C(=C/C=C/c3ccc(O)c(OC)c3)C2=O)ccc1O,"inconclusive: 15.8 µM [inhibitor, single point]"
23,COC(=O)c1sc(-c2cccs2)cc1NC(=O)/C=C/C(=O)O,"inconclusive: 20 µM [inhibitor, partial curve, poor fit]"

row,Compound,Potency
1,Cc1cccc(C(=O)N(Cc2nc(-c3ccc(Cl)cc3)no2)C(C)C)c1,inactive
2,Cc1cccc(C)c1NC(=O)CN(C)S(=O)(=O)c1ccc2c(c1)n(C)c(=O)c(=O)n2C,inactive
3,COc1ccc(C2CC(=O)N(CC(=O)Nc3ccc(C(F)(F)F)cc3)c3ccccc3S2)cc1 (centres undefined),inactive
4,Cc1ccc(Nc2ccc(NCc3ccccc3)nn2)cc1C,inactive
5,CCC(C)(C)c1ccc(OCCCC[n+]2cccc(C)c2C)c(C(C)(C)CC)c1,"inconclusive: 35.5 µM [inhibitor, partial curve, poor fit]"
6,CC(C)CC(=O)NC(=S)N(Cc1ccccc1)Cc1ccccc1,inactive
7,Cc1nn(CCC#N)c(N)c1C1(O)C(=O)Nc2c(Cl)cc(Cl)cc21 (centres undefined),"inconclusive: 35.5 µM [inhibitor, single point]"
8,COc1ccc(NC2=C(NC(C)=O)C(=O)c3ccccc3C2=O)cc1,inactive
9,Cc1ccc2nc(NCc3ccccc3)[nH]c2c1,"inconclusive: 3.55 µM [inhibitor, full curve, poor fit]"
10,CCCCC(=O)Nc1nc(C)c(-c2csc(Nc3cc(OC)ccc3OC)n2)s1,"inconclusive: 8.91 µM [inhibitor, partial curve]"
11,COc1ccc(/C=C/C(=O)O)cc1S(=O)(=O)NCc1ccco1,inactive
12,CC(C)(C)n1ncc2c(=O)n(Cc3cccc(OC(F)F)c3)cnc21,inactive
13,CCN1CCN(c2ncc(C(=O)Nc3cc(Cl)ccc3OC)c3ccccc23)CC1,"inconclusive: 35.5 µM [inhibitor, single point]"
14,CN1CCCc2cc(/C=C/c3ccnc4ccccc34)ccc21,"inconclusive: 6.31 µM [inhibitor, full curve, poor fit]"
15,COc1cccc(CNC(=O)CCn2ccc3cc(S(=O)(=O)N4CCC(C)CC4)ccc32)c1,inactive
16,O=C(CCl)Nc1cccc2ncccc12,"inconclusive: 35.5 µM [inhibitor, single point]"
17,COC(=O)C1CC23C=CCN4CCC5(c6ccccc6NC15C2C)C43 (centres undefined),"inconclusive: 3.16 µM [inhibitor, single point]"
18,CCOc1ccc(-n2nc3c(SCCN4CCCC4)nnc(C)c3c2C)cc1,"inconclusive: 22.4 µM [inhibitor, single point]"
19,Cc1cc(C)c2c(c1)C1C=CCC1C(C(=O)O)N2 (centres undefined),inactive
20,COc1cc(OC)c2c(-c3cccc(-c4cccc(C)c4)c3)cc(=O)oc2c1,"inconclusive: 2.51 µM [inhibitor, full curve, poor fit]"
21,O=C(O)CCc1c2ccc(=O)c(O)c-2oc2c(O)c(O)ccc12,inactive
22,COc1ccc(C2CC(=O)N3CN(c4ccc(C)c(Cl)c4)CSC3=C2C#N)cc1OC (centres undefined),inactive
23,CCOc1ccc(Br)cc1C1=CC(=O)C[C@H](c2ccc(OC)cc2)C1,"inconclusive: 2.24 µM [inhibitor, partial curve, poor fit]"

row,Compound,Potency
1,COc1ccc(-c2cc(C)no2)cc1S(=O)(=O)N1CC(=O)Nc2ccccc21,"inconclusive: 22.4 µM [inhibitor, single point]"
2,CC(=O)n1cc([C@H]2C=C(C(=O)N3CCN(Cc4ccc5c(c4)OCO5)CC3)O[C@@H](OCc3ccc(CO)cc3)C2)c2ccccc21,inactive
3,CSc1ccc(/C=N\Nc2nncn2N)cc1,inactive
4,COc1cc2c(cc1OC)C(=S)NC(C)(C)C2,"inconclusive: 35.5 µM [inhibitor, single point]"
5,CCc1nc(SCC(=O)N2CCCc3ccccc32)c2oc3ccccc3c2n1,inactive
6,O=C(CCS(=O)(=O)c1nc(-c2cccs2)cc(C(F)(F)F)n1)Nc1ccc(Br)cc1,"inconclusive: 20 µM [inhibitor, single point]"
7,COc1ccc(CCn2c(=S)[nH]c3cc(C(=O)NCc4ccco4)ccc3c2=O)cc1OC,"inconclusive: 17.8 µM [inhibitor, single point]"
8,CC1=NN(c2ccc(C)c(C)c2)C(=O)/C1=C\C=C\c1ccc([N+](=O)[O-])o1,"inconclusive: 28.2 µM [inhibitor, single point]"
9,CCOc1ccc(C)cc1S(=O)(=O)n1cnc2ccccc21,"inconclusive: 5.62 µM [inhibitor, full curve, poor fit]"
10,COc1cccc(-c2nnc(SCC(=O)OC(C)C)n2Cc2ccco2)c1,inactive
11,Cc1[nH]nc(-c2ccc(OCc3cnn(-c4ccccc4)c3)cc2O)c1Oc1ccc(Cl)cc1,"inconclusive: 35.5 µM [inhibitor, single point]"
12,N#CC1=C(N)Oc2cc(N)ccc2C1c1cccc(F)c1 (centres undefined),"inconclusive: 3.16 µM [inhibitor, partial curve]"
13,COc1ccc(/C=C2\SC(=S)N(CCC(=O)Nc3cccc(O)c3)C2=O)cc1,"inconclusive: 31.6 µM [inhibitor, single point]"
14,Cc1[nH][nH]c(=O)c1C(c1c(C)[nH][nH]c1=O)c1cn(Cc2ccc(Cl)c(Cl)c2)c2ccccc12,"inconclusive: 12.6 µM [inhibitor, partial curve]"
15,Cn1c(CCNC(=O)c2ccco2)nc2cc(NS(=O)(=O)c3ccccc3)ccc21,inactive
16,C(=Nc1ccc(/C=C/c2ccnc3ccccc23)cc1)Nc1ccc(/C=C/c2ccnc3ccccc23)cc1,"inconclusive: 22.4 µM [inhibitor, single point]"
17,COc1ccc2c(c1)C(C)=CC(C)(C)N2S(=O)(=O)c1ccc(Br)cc1,"inconclusive: 0.562 µM [inhibitor, full curve, poor fit]"
18,O=C1NC(=S)S/C1=C\C=C\c1ccc([N+](=O)[O-])o1,"inconclusive: 0.631 µM [inhibitor, full curve, poor fit]"
19,COc1ccc(-c2ccn(-c3cccc(F)n3)n2)cc1,"inconclusive: 35.5 µM [inhibitor, single point]"
20,CCOC(=O)/C(C#N)=C/c1cc2cc(C)c(C)cc2nc1Cl,inactive
21,CCN1CCc2c(sc(NC(=O)c3ccc(S(=O)(=O)N(C)C4CCCCC4)cc3)c2C(N)=O)C1,"inconclusive: 35.5 µM [inhibitor, partial curve, poor fit]"
22,COc1ccc(CC(=O)Nc2ncc([N+](=O)[O-])s2)cc1OC,inactive
23,CCCCCCCCCCCCCCCC[n+]1ccc(/C=C/c2c[nH]c3ccccc23)cc1,"inconclusive: 0.562 µM [inhibitor, full curve, poor fit]"
